Where “and” joins values, the source holds several entries; their conditions need not be identical. Identical values can stand only once. The list shows a part of the results. The main result of the screen is listed elsewhere. These columns were measured beside it and carry no call.

The values that follow come from PubChem BioAssay AID1745853 (National Center for Advancing Translational Sciences (NCATS), 2022).

Assay in all cases: Primary Screen for Target Class Profiling of Small Molecule Inhibitors of Methyltransferases
Assay [1] addresses Glycine N-methyltransferase (Homo sapiens) (UniProt Q14749). Particulars: purified enzyme, MTase-Glo SAH luminescence; measured here: GNMT inhibition; at 40 µM; stronger effect = lower value. Put shortly:
(§1)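 Each enzyme was reacted with SAM and its substrate, with compounds tested once at 40 uM; SAH formed was read by MTase-Glo luminescence.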

The target in assay [2] is Guanidinoacetate N-methyltransferase (Homo sapiens) (UniProt Q14353). Particulars: purified enzyme, MTase-Glo SAH luminescence; measured here: GAMT inhibition; at 40 µM; stronger effect = lower value. A digest of the protocol:
as §1

The target in assay [3] is Histamine N-methyltransferase (Homo sapiens) (UniProt P50135). Conditions: purified enzyme, MTase-Glo SAH luminescence; measured here: HNMT inhibition; at 40 µM; stronger effect = lower value. Put shortly: as §1
The target of assay [4] is Nicotinamide N-methyltransferase (Homo sapiens) (UniProt P40261). Particulars: purified enzyme, MTase-Glo SAH luminescence; measured here: NNMT inhibition; at 40 µM; stronger effect = lower value. Put shortly:
as §1

Assay [5] concerns the target Phenylethanolamine N-methyltransferase (Homo sapiens) (UniProt P11086). Conditions: purified enzyme, MTase-Glo SAH luminescence; measured here: PNMT inhibition; at 40 µM; stronger effect = lower value. Put shortly:
as §1
% is scaled to controls: 0 for no effect and ±100 for the full control effect.

For the compound `CN1CCN(CCCNC(=O)CCCn2nc(-c3ccccc3)c3cc(Cl)ccc32)CC1`, the activity change, negative = inhibition is -0.292% in assay [1]; 4.81% in assay [2]; -5.58% in assay [3]; 9.34% in assay [4]; -7.27% in assay [5].

For the compound `O=C(O)c1ccc(Nc2ncc3c(n2)-c2ccc(Cl)cc2C(c2c(F)cccc2F)=NC3)cc1`, the activity change, negative = inhibition in assay [1] was -10.3%; in assay [2], 1.58%; in assay [3] it was -2.1%; in assay [4] it was -25.6%; in assay [5] it was -4.06%.

With `Clc1cc2c(NC3CCCC3)nnc(-c3ccncc3)c2cc1Cl`, the activity change, negative = inhibition is -18.8% in assay [1]; 1.04% in assay [2]; -6.8% in assay [3]; -24.5% in assay [4]; -9.45% in assay [5].

On to `CCC(C)NC(=O)c1ccc2c(=O)n(Cc3ccccc3)c3nn(Cc4ccccc4F)c(=O)n3c2c1` (centres undefined), for which the activity change, negative = inhibition was 2.12% in assay [1]; 2.96% in assay [2]; 0.816% in assay [3]; -4.27% in assay [4]; -0.004% in assay [5].

As for `CC[C@@H](Nc1c(Nc2cccc(C(=O)N(C)C)c2O)c(=O)c1=O)c1cc(C(C)C)co1`, the activity change, negative = inhibition in assay [1] was 4.21%; in assay [2], -2.28%; in assay [3], -2.92%; in assay [4], -21.9%; in assay [5], -15.2%.

Take `COCCCN1C(=O)c2nc3ccccc3n2CC1(C)C(=O)NC1CCCCCC1` (centres undefined): the activity change, negative = inhibition was determined as 3.91% in assay [1]; 0% in assay [2]; 7.76% in assay [3]; 9.39% in assay [4]; 1.01% in assay [5].

Regarding `COC(=O)[C@H]1[C@H]2C[C@@H]3c4[nH]c5cc(OC)ccc5c4CCN3C[C@H]2C[C@@H](OC(=O)c2cc(OC)c(OC)c(OC)c2)[C@@H]1OC`, the activity change, negative = inhibition was -2.79% and -25.6% in assay [1]; -6.24% and -2.95% in assay [2]; 0.616% and -9.04% in assay [3]; -45.8% and -32.4% in assay [4]; -3.1% and -9.21% in assay [5].

Take `CN(C)[C@@H]1CO[C@H](CNC(=O)CC(C)(C)C)[C@H]1O`: the activity change, negative = inhibition in assay [1] was -1.09%; in assay [2] it was -0.685%; in assay [3] it was -1.49%; in assay [4], -1.6%; in assay [5] it was -1.67%.

In the case of `CCc1cc2c(cc3n2CC(C)(C(=O)NC2CCCCCC2)N(c2cccc(Cl)c2C)C3=O)s1` (centres undefined), the activity change, negative = inhibition in assay [1] is 0.532%; in assay [2], 4.92%; in assay [3] it was -0.515%; in assay [4] it was 3.6%; in assay [5] it was -2.27%.

In the case of `CCCN1C(=O)c2cc(-c3ccccc3)nn2CC1(C)C(=O)NCc1ccccc1` (centres undefined), the activity change, negative = inhibition in assay [1] was 1.09%; in assay [2], 0.561%; in assay [3], 2.4%; in assay [4] it was 8.34%; in assay [5], -1.48%.

Take `CCn1ncc(CN2C[C@@H](COC)[C@H](c3ccncc3)C2)c1C`: the activity change, negative = inhibition in assay [1] is -2.61%; in assay [2] it was 0.426%; in assay [3], -1.72%; in assay [4], -8.4%; in assay [5] it was -1.35%.

In the case of `C/C(=C\CCC(C)C1=CCC2(C)OC3=C(CC12)C(=O)C(O)CC3)CO` (centres undefined), the activity change, negative = inhibition in assay [1] was -2.53%; in assay [2], -5.79%; in assay [3], 3.71%; in assay [4] it was -22.2%; in assay [5] it was -18.7%.

As to `NCCC(=O)N1CCCC(N2CCN(c3ccccc3F)CC2)C1` (centres undefined), the activity change, negative = inhibition was -0.231% in assay [1]; -0.454% in assay [2]; 1.41% in assay [3]; -0.908% in assay [4]; -1.16% in assay [5].

In the case of `NC(=O)c1csc(C2OC(CO)C(O)C2O)n1` (centres undefined), the activity change, negative = inhibition is 7.78% in assay [1]; 1.31% in assay [2]; 11.5% in assay [3]; -4.13% in assay [4]; 8.42% in assay [5].

Regarding `Cc1ccc(C)c(NC(=O)Cn2c(=O)oc3cc(S(=O)(=O)N4CCCC4)ccc32)c1`, the activity change, negative = inhibition in assay [1] is -8.72%; in assay [2], 1.05%; in assay [3], -7.5%; in assay [4], -3.78%; in assay [5] it was -8.36%.

With `COc1ccc(-c2cc3n(n2)CC(C)(C(=O)NCc2ccccc2OC)N(Cc2ccc(Cl)cc2)C3=O)cc1` (centres undefined), the activity change, negative = inhibition in assay [1] is 4.25%; in assay [2] it was 3.72%; in assay [3], 4.74%; in assay [4], -2.96%; in assay [5], -0.061%.

`O=C(c1n[nH]c2c1CCCCCC2)N1CCc2c(nc3cc(-c4ccccc4)[nH]n3c2=O)C1`: the activity change, negative = inhibition in assay [1] was -17.6%; in assay [2], -4.71%; in assay [3], -7.14%; in assay [4], -6.86%; in assay [5], -7.76%.

In the case of `O=C(O)CN(CCOCCOCCN(CC(=O)O)CC(=O)O)CC(=O)O`, the activity change, negative = inhibition in assay [1] is 1.02%; in assay [2] it was 8.55%; in assay [3], 1.4%; in assay [4] it was -8.05%; in assay [5], 0.363%.

With `C[C@@H]1O[C@@H](OC(=O)Cc2ccccc2)[C@H](O)[C@H](O)[C@H]1O`, the activity change, negative = inhibition in assay [1] was -0.76%; in assay [2], -4.51%; in assay [3], 5.16%; in assay [4], -11.6%; in assay [5], -9.44%.

For the compound `Cc1ccsc1CN1CCCC(O)(CN(C)C)C1` (centres undefined), the activity change, negative = inhibition in assay [1] was -4.45%; in assay [2] it was -7.14%; in assay [3] it was -1.83%; in assay [4], -0.857%; in assay [5], -3.71%.

For `CC1(C)CC23[C@@H]4CC(=O)[C@@H]2COC(=O)[C@@H]3CC[C@H]41`, the activity change, negative = inhibition in assay [1] was -1.46%; in assay [2], 1.24%; in assay [3], 6%; in assay [4], -10.5%; in assay [5], -0.512%.

Take `CC1(C)CC[C@]2(C(=O)O)CC[C@]3(C)C(=CCC4[C@@]5(C)C[C@@H](O)[C@H](O)C(CO)(CO)C5CC[C@]43C)C2[C@@H]1O` (some centres undefined): the activity change, negative = inhibition was 0% in assay [1]; -12.1% in assay [2]; 5.6% in assay [3]; -21.5% in assay [4]; -11.5% in assay [5].

On to `O=C(Cn1nc2n(Cc3ccccc3)c(=O)c3ccccc3n2c1=O)Nc1ccc2c(c1)OCCO2`, for which the activity change, negative = inhibition in assay [1] is 4.07%; in assay [2], 2.82%; in assay [3] it was 8.03%; in assay [4], -3.26%; in assay [5], 0.326%.

Turning to `CC(C)C[C@H](NC(=O)[C@@H](O)[C@H](N)Cc1ccccc1)C(=O)O`, the activity change, negative = inhibition in assay [1] was -1.91%; in assay [2] it was 5.91%; in assay [3], 0.093%; in assay [4], -6.39%; in assay [5], 1.59%.

Take `CCc1cccc(N2C(=O)c3cc4ccc(OC)cc4n3CC2(C)C(=O)NC2CCCC2)c1` (centres undefined): the activity change, negative = inhibition in assay [1] was 1.6%; in assay [2], 0%; in assay [3] it was 7.06%; in assay [4], 5.74%; in assay [5] it was -0.027%.

For `CC(=O)O[C@@]12CO[C@@H]1C[C@H](O)[C@@]1(C)C(=O)[C@H](O)C3=C(C)[C@@H](OC(=O)[C@H](O)[C@@H](NC(=O)OC(C)(C)C)c4ccccc4)C[C@@](O)([C@@H](OC(=O)c4ccccc4)C12)C3(C)C` (some centres undefined), the activity change, negative = inhibition in assay [1] was -1.07%; in assay [3] it was 9.98%.

For the compound `N#CCC(C1CCCC1)n1cc(-c2ncnc3[nH]ccc23)cn1` (centres undefined), the activity change, negative = inhibition is -1.73% in assay [1] and -9% in assay [3].

Regarding `COc1ccc(OC)c(CCN2C(=O)c3cc4sccc4n3CC2(C)C(=O)NC2CCCC2)c1` (centres undefined), the activity change, negative = inhibition was -6.4% in assay [1]; 5.35% in assay [2]; -7.31% in assay [3]; -11.2% in assay [4]; -10.4% in assay [5].

Take `COc1ccc(-c2cc3n(n2)CC(C)(C(=O)NCc2ccccc2)N(Cc2ccccc2Cl)C3=O)cc1` (centres undefined): the activity change, negative = inhibition in assay [1] is -5.78%; in assay [2], 3.18%; in assay [3], -3.51%; in assay [4], -6.4%; in assay [5], -4.24%.

For the compound `COc1ncccc1-c1cc(-c2c(C)noc2C)c2cncn2c1`, the activity change, negative = inhibition was -19.4% in assay [1]; -10.9% in assay [2]; -8.14% in assay [3]; -24.9% in assay [4]; -30.8% in assay [5].

As for `N[C@H](C(=O)O)[C@H](O)C(=O)O`, the activity change, negative = inhibition in assay [1] is 12.1%; in assay [2] it was 13.3%; in assay [3] it was 13.3%; in assay [4], -4.94%; in assay [5], 1.08%.

Take `COC1CC(=O)C23C(=O)NC(Cc4c[nH]c5ccccc45)C2C(C)C2(C)OC2C3/C=C/CC(C)CC1O` (centres undefined): the activity change, negative = inhibition in assay [1] was -3.02%; in assay [2] it was -2.06%; in assay [3], 7.35%; in assay [4] it was -16.3%; in assay [5], -6.2%.

For the compound `Cc1ccc(Cn2c(=O)c3ccccc3n3c(CCC(=O)Nc4ccccc4)nnc23)cc1`, the activity change, negative = inhibition in assay [1] was -5.67%; in assay [2], 5.82%; in assay [3], 3.64%; in assay [4], 2.58%; in assay [5] it was -2.92%.

Take `COC(=O)c1ccc(CNC(=O)CC2c3cccnc3C(=O)N2c2ccccc2)cc1` (centres undefined): the activity change, negative = inhibition in assay [1] was -3.44%; in assay [2], -2.17%; in assay [3], -0.754%; in assay [4], -13.8%; in assay [5] it was -0.478%.

Take `CN1C(=O)c2cc(C(=O)NCc3cccc(Cl)c3)nn2CC1(C)C(=O)NCc1ccccc1` (centres undefined): the activity change, negative = inhibition in assay [1] is -3.15%; in assay [2], 0%; in assay [3], -3.12%; in assay [4], -2.59%; in assay [5] it was -1.55%.

Regarding `O=S(=O)(c1ccc2[nH]c3c(c2c1)CCCC3)N1CCOc2ccc(Cl)cc21`, the activity change, negative = inhibition in assay [1] was 13%; in assay [2] it was 2.07%; in assay [3], 8.4%; in assay [4] it was -0.144%; in assay [5], 7.44%.

As for `COC(=O)N1CCC2(C1)N=C(c1ccncc1)C(=O)N2` (centres undefined), the activity change, negative = inhibition in assay [1] was -5.1%; in assay [2], -6.93%; in assay [3], -3.58%; in assay [4] it was -9.67%; in assay [5], -7.28%.

With `CC(C)Cn1c(=O)c2ccccc2n2c(CCC(=O)N3CCN(Cc4ccccc4)CC3)nnc12`, the activity change, negative = inhibition in assay [1] was -11.2%; in assay [2], 3.32%; in assay [3], 4.02%; in assay [4], -37.6%; in assay [5], -0.692%.
